Like-named read-outs stand apart in the source and are kept apart here. Bounds are passed on as bounds.

What all share (assay): microbe, parasite or virus in culture
Holding throughout (format): cell-based

The subject of test [1] is HBV strain M204V.
The subject of test [2] is HBV strain L180M.
Test [3] deals with HBV strain N236T.
Test [4] deals with HBV strain M2041.
The test system of test [5] is HBV strain LM/MV.
Where [6] appears, read: HBV strain M204V, read-out: EC50.
[7] abbreviates: HBV strain M204V, read-out: EC90.
Where [8] appears, read: HBV strain L180M, read-out: EC50.
Where [9] appears, read: HBV strain N236T, read-out: EC50.
The mark [10] stands for this setting: HBV strain N236T, read-out: EC90.
Where [11] appears, read: HBV strain M2041, read-out: EC50.
The mark [12] stands for this setting: HBV strain M2041, read-out: EC90.
Setting [13] is: HBV strain LM/MV, read-out: EC50.
[14] abbreviates: HBV strain LM/MV, read-out: EC90.

Regarding `CC(C)(C)C(=O)OCOP(=O)(COCCn1cnc2c(N)ncnc21)OCOC(=O)C(C)(C)C` [ADV], the EC50 in test [1] (setting [6]) was found to be 1.5 µM; in test [2] (setting [8]), 1.6 µM; in test [3] (setting [9]) it was 7.7 µM; in test [4] (setting [11]) it was 1.8 µM; in test [5] (setting [13]), 1.2 µM. Moreover, the EC90 in test [1] (setting [7]) was 6.3 µM; in test [2] (HBV strain L180M, read-out: EC90), 6.8 µM; in test [3] (setting [10]) it was 30 µM; in test [4] (setting [12]), 7 µM; in test [5] (setting [14]), 6.1 µM.
Turning to `Nc1ccn([C@@H]2CS[C@H](CO)O2)c(=O)n1` [Compound 3TC], the EC50 in test [1] (setting [6]) is above 100 µM; in test [2] (setting [8]), 10 µM; in test [3] (setting [9]), 0.3 µM; in test [4] (setting [11]), above 100 µM; in test [5] (setting [13]), above 100 µM. In addition, the EC90 in test [1] (setting [7]) was above 100 µM; in test [3] (setting [10]) it was 0.8 µM; in test [4] (setting [12]) it was above 100 µM; in test [5] (setting [14]), above 100 µM.
Turning to `C#Cc1cn([C@@H]2C=C(CO)C(O)C2O)c2ncnc(N)c12` (some centres unmarked) [Compound 27, 7-Deaza-7-Acetylene-Neplanocin A], the EC50 stood at 2.1 µM in test [1] (Hepatitis B virus); 2 µM in test [2] (Hepatitis B virus); 5.6 µM in test [3] (Hepatitis B virus); 3 µM in test [4] (Hepatitis B virus); 2.8 µM in test [5] (Hepatitis B virus). For the same compound, the EC90 in test [1] (Hepatitis B virus) came to 8.9 µM; in test [2] (Hepatitis B virus), 8.2 µM; in test [3] (Hepatitis B virus), 16 µM; in test [4] (Hepatitis B virus), 9.5 µM; in test [5] (Hepatitis B virus), 9 µM.

Values taken from patent US20090270431A1, “Cyclopentenol Nucleoside Compounds Intermediates for their Synthesis and Methods of Treating Viral Infections” (THE UNIVERSITY OF GEORGIA RESEARCH FOUNDATION, priority 2005, published 2009).
